Measured values as given in PMC4336329 (PLoS ONE, 2015).
The whole screen tested about 310,000 compounds, of which about 2,200 (0.71%) showed an effect of 50% or more. Effects have a minus sign here. The list shows a part of the results.

Target: human ether-à-go-go-related gene (hERG) potassium channel (human, UniProt Q12809)
Experiment: primary screen, population patch clamp on CHO cells stably expressing hERG

Sequence of human ether-à-go-go-related gene (hERG) potassium channel (Q12809 whole entry, looked up): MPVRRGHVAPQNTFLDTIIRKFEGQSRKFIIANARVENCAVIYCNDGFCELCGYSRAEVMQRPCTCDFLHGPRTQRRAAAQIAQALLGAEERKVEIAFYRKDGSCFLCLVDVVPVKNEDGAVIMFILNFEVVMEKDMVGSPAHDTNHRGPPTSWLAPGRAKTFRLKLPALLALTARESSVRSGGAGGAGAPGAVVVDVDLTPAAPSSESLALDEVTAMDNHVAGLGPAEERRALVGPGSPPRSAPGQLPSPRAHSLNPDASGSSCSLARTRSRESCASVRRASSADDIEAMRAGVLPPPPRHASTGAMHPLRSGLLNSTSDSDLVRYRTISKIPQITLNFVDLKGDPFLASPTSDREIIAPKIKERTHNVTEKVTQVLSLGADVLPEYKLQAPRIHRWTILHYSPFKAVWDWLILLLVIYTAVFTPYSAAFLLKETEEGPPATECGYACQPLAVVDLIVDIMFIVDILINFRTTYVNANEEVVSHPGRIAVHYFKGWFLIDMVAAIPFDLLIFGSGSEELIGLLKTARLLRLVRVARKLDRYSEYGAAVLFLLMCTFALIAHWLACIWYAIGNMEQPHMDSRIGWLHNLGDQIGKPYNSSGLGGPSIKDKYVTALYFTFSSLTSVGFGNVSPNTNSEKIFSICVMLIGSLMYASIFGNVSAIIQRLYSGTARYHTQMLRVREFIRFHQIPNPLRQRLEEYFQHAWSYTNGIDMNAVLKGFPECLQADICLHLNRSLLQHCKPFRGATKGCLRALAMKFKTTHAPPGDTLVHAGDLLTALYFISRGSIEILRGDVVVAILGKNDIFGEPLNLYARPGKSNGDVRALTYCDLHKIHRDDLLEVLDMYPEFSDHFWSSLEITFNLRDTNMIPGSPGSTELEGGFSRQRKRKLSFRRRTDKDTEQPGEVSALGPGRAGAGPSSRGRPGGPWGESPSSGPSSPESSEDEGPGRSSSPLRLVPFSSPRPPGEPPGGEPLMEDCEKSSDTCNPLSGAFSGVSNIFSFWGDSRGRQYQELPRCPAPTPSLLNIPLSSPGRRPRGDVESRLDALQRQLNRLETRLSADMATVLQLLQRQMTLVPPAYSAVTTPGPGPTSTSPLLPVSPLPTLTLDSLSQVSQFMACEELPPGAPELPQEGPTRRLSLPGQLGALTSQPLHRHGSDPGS

SMILES	hERG current change (%, negative = inhibition) at 1uM [%]
C[C@H]1C=C(C(=O)NC2CC2)O[C@@H](OCc2ccc(CO)cc2)C1	6.19
CC(=O)Nc1nc2c(s1)C(=O)NCC(C)(C)C2	16.1
CC(C)(C)c1ccc(C(=O)c2c[nH]c(C(=O)NCc3cccnc3)c2)cc1	1.1
O=C(Nc1cccnc1)c1ccc(N2CCOCC2)c([N+](=O)[O-])c1	15.3
CCC(=O)Nc1nc2nc(-c3ccccc3)cc(-c3ccccc3)n2n1	8.63
CN(Cc1ccccc1)S(=O)(=O)c1ccc2[nH]cc(C(=O)NCC3CCCO3)c(=O)c2c1 (stereo not shown)	-2.57
COc1ccc(-c2nn(-c3ccccc3C)cc2CNCc2cccnc2)cc1F	1.2
COc1ccc(/C=C2/N=C(SCC(=O)Nc3cc(C)on3)N(c3ccccc3)C2=O)cc1	12.9
CCOC(=O)/C(=N\Nc1cc(C(F)(F)F)ccc1Cl)N(CC)CC	-0.714
Cc1onc(-c2c(F)cccc2Cl)c1C(=O)Nc1nnc(-c2ccccc2)s1	5.78
CCC(C)(C)C1CCC(=NNC(=S)Nc2cccnc2)CC1 (stereo not shown)	14
Cc1ccc(O)c(NC(=S)NC(=O)COc2ccc(Br)cc2)c1	14
O=[N+]([O-])c1cc(S(=O)(=O)N2CCCC2)ccc1O	6.04
COC(=O)c1cc(=O)n(-c2ccc(C(F)(F)F)cc2)[nH]1	11.5
Cc1cc(C(=O)OCC(=O)Nc2ccc(F)cc2[N+](=O)[O-])c2ccccc2n1	-0.753
COc1ccc(COCC(O)CN2CCN(S(=O)(=O)c3ccc(C(C)C)cc3)CC2)cc1 (stereo not shown)	15
O=C(Nc1cccc(C(F)(F)F)c1)c1ccc2nc(N3C(=O)CCC3=O)sc2c1	4.32
COc1ccccc1OC(=O)Nc1ccc(Cl)cc1	7.89
Cc1c(NC(=O)CN2C(=O)c3ccccc3C2=O)c(=O)n(-c2ccccc2)n1C	11.9
N/C(=N\OC(=O)CCCc1ccccc1)c1cccnc1	-0.136
Cc1nnc(NCCc2ccccc2)n(N)c1=O	4.92
COc1ccc(CCNC(=O)C2CCCN2S(=O)(=O)c2cccc3nsnc23)cc1OC (stereo not shown)	12.9

SMILES	hERG current change (%, negative = inhibition) at 1uM [%]
CC(C)CC(=O)N1CCC(O)(CS(=O)(=O)Cc2ccccc2)CC1	1.65
COc1ccc(/C=N/NC(=O)C(=O)N2CCCCCC2)cc1[N+](=O)[O-]	7.89
Fc1ccc(C(c2nnnn2CCc2ccccc2)N2CCCc3ccccc32)cc1 (stereo not shown)	15.6
CC(C)Cc1nnc(NC(=O)CCC(=O)N2CC(C)CC(C)C2)s1 (stereo not shown)	-15.8
O=C1CN(S(=O)(=O)c2cc(Cl)ccc2Cl)c2ccccc2N1	9.79
O=C(O)/C=C\c1cc2c(cc1[N+](=O)[O-])OCO2	14.5
CC(=O)C1=C(O)C(=O)N(c2cc(C(C)(C)C)on2)C1c1ccc(C(C)C)cc1 (stereo not shown)	2.26
CN(C)C1NC(=O)c2cc(-c3ccccc3)sc2N1 (stereo not shown)	1.11
CCc1ccc(NC(=O)CCc2nc3cccnc3n2Cc2ccc(OC)cc2)cc1	6.9
Cc1nc(/C(N)=N/OC(=O)Cc2ccccc2)no1	3.24
Cc1ccc(NC(=O)c2ccccc2NS(=O)(=O)c2ccc(Cl)s2)cc1	8.59
COc1ccc(C(C)=O)cc1COC(=O)c1ccc(S(=O)(=O)N2CCOCC2)cc1	8.54
C/C(=N\NC(=O)c1c([N+](=O)[O-])c(C)nn1C)c1ccc(NC(=O)C2CCCC2)cc1	17.5
CCN(CC)S(=O)(=O)c1cccc(NC(=O)c2cccc(S(=O)(=O)N3CCCC3)c2)c1	-49
CCCc1ccc2oc(C(=O)NCCc3cnn(C)c3)c(C)c2c1	3.38
Cc1ccc(NC(=O)NNC(=O)c2cc3ccccc3cc2O)c(C)c1	19.9
CCOC(=O)N1CCN(S(=O)(=O)c2ccc(C(=O)N(CCN(C)C)c3nc4ccc(CC)cc4s3)cc2)CC1.Cl	-6.83
Cc1ccccc1[C@@H]1C(C#N)=C(N)S[C@H]1C(=O)c1ccccc1	-1.66
Cc1ccnc(Sc2ccc([N+](=O)[O-])cn2)n1	14.2
CN(Cc1cnn(C)c1)C(=O)C1CCCCC1C(=O)O (stereo not shown)	2.4
COC(=O)C(C)N1C(=O)S/C(=C\c2ccc(-c3ccc(C(=O)O)cc3C)o2)C1=O (stereo not shown)	8.93
O=C([C@@H]1CCCN1C(=O)c1cccs1)N1CCN(S(=O)(=O)c2cccc(F)c2)CC1	17

SMILES	hERG current change (%, negative = inhibition) at 1uM [%]
COc1ccccc1N(C)S(=O)(=O)c1ccc(C(=O)NCC2CCCCC2)cc1	11.6
CC1=CSC2=NC(=O)/C(=C\c3cccn3-c3ccc([N+](=O)[O-])cc3)C(=N)N12	10.9
O=C(C1CC(=O)N(c2ccc(F)cc2)C1)N1CCCCCC1 (stereo not shown)	12.3
Cc1cc(=O)oc2cc(Oc3ccc([N+](=O)[O-])cc3[N+](=O)[O-])ccc12	-49.5
CCCC(=O)N1c2ccccc2NC2=C(C(=O)CCC2)C1c1ccc(F)cc1 (stereo not shown)	12.6
CCN1C(=O)CC(N2CCN(c3ccc(OC)cc3)CC2)C1=O (stereo not shown)	1.87
Cc1ccc(S(=O)(=O)NCC2CCC(C(=O)NCc3ccccn3)CC2)cc1 (stereo not shown)	7.25
Cc1ccc(/C=C2\SC(=S)N(c3c(C)n(C)n(-c4ccccc4)c3=O)C2=O)cc1	8.87
CS(=O)(=O)n1nc(OC(=O)c2cccc3ccccc23)cc1N	4.77
CC(=O)CC(=O)Nc1ncc(C(F)(F)F)cc1Cl	12.7
NNC(=O)CNS(=O)(=O)c1ccc([N+](=O)[O-])cc1	9.23
O=c1[nH]c(SCc2ccccc2)nc2[nH]ncc12	6.86
O=C(NCc1nc2ccccc2[nH]1)C1=C[C@H](c2coc3ccccc3c2=O)C[C@H](OCc2ccc(CO)cc2)O1	9
COc1ccc(CCN(C)C(=O)C2CCN(Cc3ccc(C)cc3)CC2)cc1OC.O=C(O)C(=O)O	-16.4
O=C(Cn1nnc(-c2ccccc2)n1)OC1CCOC1=O (stereo not shown)	10.8
CC(C)C(=O)Nc1ccc(NC(=O)c2cccc(F)c2)cn1	12.2
Cc1cc(C)cc(C(=O)NCC(=O)N2CCN(C(c3ccccc3)c3ccccc3)CC2)c1	11.9
CCn1nc(C(=O)NC2=NCCS2)c2ccccc2c1=O	17.8
CC(=C/c1ccco1)/C=N/NC(=O)Cc1cccn1C	-2.71
CC(C)OCCCNC(=O)CNC(=O)c1ccc(Cl)c(Cl)c1	24
CCCCNc1ccc(S(=O)(=O)c2cccc([N+](=O)[O-])c2)cc1[N+](=O)[O-]	-1.13
COC(=O)Cn1c2ccccc2c2nc(C)sc21	1.93

SMILES	hERG current change (%, negative = inhibition) at 1uM [%]
Cc1ccc(NC(=O)CCc2c(C)nn(-c3ccc(N4CCCCC4)nn3)c2C)cc1F	3.97
CC(C)(C)c1ccc(OC(=O)N2CCOCC2)cc1	13.8
Cc1cc2c(N)cccc2nn1	6.52
Cc1c(NC(=O)/C(C#N)=C/C2CC=CCC2)c(=O)n(-c2ccccc2)n1C (stereo not shown)	16.2
C#CCOCCOCCOCCNc1nc(N2CCN(C(=O)CCCCCCCCCCNC(=O)Cn3cc(C[C@@H](C)O)nn3)CC2)nc(N2CCN(C(=O)CCCCCCCCCCNC(=O)[C@@H](CCSC)n3cc(CCO)nn3)CC2)n1	5.83
COc1cc2nc(Cl)nc(N3CCN(C)CC3)c2cc1OC	6.21
CCC(C)(C)NC(=O)C(c1cccn1C)N(C(=O)Cn1nnc2ccccc21)c1ccc(OC)cc1OC (stereo not shown)	2.03
Cc1ccc(S(=O)(=O)NCC(=O)Nc2cccc([N+](=O)[O-])c2)cc1	4.69
Cc1ccc(N2CC(C(=O)Nc3c4c(nn3C(C)(C)C)CS(=O)(=O)C4)CC2=O)cc1 (stereo not shown)	9.81
Cc1ccc(S(=O)(=O)N2CCCC2)cc1S(=O)(=O)N1CCCC1	8.58
CC1CN(C(=S)SCC(=O)c2ccc(Cl)cc2)CC(C)O1 (stereo not shown)	11.8
COCCCNC(=S)N/N=C/c1ccc(OC)cc1	14
CSc1ccccc1NC(=O)CN(C)C(=O)/C=C/c1ccccc1	11.9
C/C(CC(=O)Nc1ccccc1C(F)(F)F)=N\NC(=O)c1cnccn1	7.3
COCC(C)NC(=O)c1ccc(N(C)C)cc1 (stereo not shown)	5.37
CN(C)C=NC(=O)c1cccn1-c1ncc(C(F)(F)F)cc1Cl	6.5
Cc1cc(C)cc(OCCNC(=O)C(C)N2C(=O)c3ccccc3C2=O)c1 (stereo not shown)	5.34
COc1ccc(N2C(=O)CC(N3CCN(C4CCc5ccccc5C4)CC3)C2=O)cc1 (stereo not shown)	-37.7
CC(C)c1nnc(SCC(=O)NCc2ccco2)n1C	6.97
